Results from the supplement of paper PMC4967469.

How the values were obtained:
Assay in all cases: Viability of human cancer cell lines after 72 h of drug (GDSC screen)
[1] = compound: CO[C@@H]1[C@H](N(C)C(=O)c2ccccc2)C[C@H]2O[C@]1(C)n1c3ccccc3c3c4c(c5c6ccccc6n2c5c31)C(=O)NC4 [Midostaurin]; conditions: top dose 0.512 µM; top dose inferred
Experimental: (§1)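 Human cancer cell lines in 384-well plates, medium with 10% serum, drug for 72 h over a 256-fold dose range (nine 2-fold or five 4-fold steps up to the top dose). Adherent lines were fixed and stained with the nucleic acid dye Syto60, suspension lines read with resazurin; signal relative to control wells, capped at 0 and 100%. One two-parameter sigmoid per drug and line, fitted in a mixed model over all curves with the slope shared within a line.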

[2] = compound: CO[C@@]12[C@H](COC(N)=O)C3=C(C(=O)C(C)=C(N)C3=O)N1C[C@@H]1N[C@@H]12 [Mitomycin C]; conditions: top dose 16 µM
Experimental: as §1

[3] = compound: Cc1ccc(C(=O)Nc2cccc(C(F)(F)F)c2)cc1Nc1nc(-c2cccnc2)nc2c1cnn2C [NVP-BHG712]; conditions: top dose 10.24 µM; top dose inferred
Experimental: as §1

[4] = compound: O=C(O)CNC(=O)c1c(O)c2ccccc2n(Cc2ccccc2)c1=O [IOX2]; conditions: top dose 0.1 µM; top dose inferred
Experimental: as §1

[5] = compound: COc1cc(Nc2c(C#N)cnc3cc(OCCCN4CCN(C)CC4)c(OC)cc23)c(Cl)cc1Cl [Bosutinib]; conditions: top dose 2 µM
Experimental: as §1

Cell Line: MKN1 (stomach, adherent)
- AUC [1]: 0.868
- IC50 [1]: 512 nM
- AUC [2]: 0.406
- AUC [3]: 0.933
- IC50 [3]: > 10200 nM
- AUC [4]: 0.984
- IC50 [4]: > 100 nM

Cell Line: ML-1 (thyroid, adherent)
- AUC [1]: 0.467
- IC50 [1]: 25.6 nM
- AUC [2]: 0.17
- IC50 [2]: 80.1 nM
- AUC [3]: 0.975
- IC50 [3]: > 10200 nM
- AUC [4]: 0.982
- IC50 [4]: > 100 nM

Cell Line: NCI-H196 (small cell lung carcinoma, adherent)
- AUC [1]: 0.988
- IC50 [1]: > 512 nM
- AUC [2]: 0.685
- IC50 [2]: 3390 nM
- AUC [3]: 0.981
- IC50 [3]: > 10200 nM
- AUC [4]: 0.987
- IC50 [4]: > 100 nM

Cell Line: NCI-H1299 (large cell lung carcinoma, adherent)
- AUC [1]: 0.751
- IC50 [1]: 203 nM
- AUC [2]: 0.306
- IC50 [2]: 249 nM
- AUC [3]: 0.872
- IC50 [3]: > 10200 nM
- AUC [4]: 0.961
- IC50 [4]: > 100 nM

Cell Line: NCI-H1573 (lung adenocarcinoma, adherent)
- AUC [1]: 0.987
- IC50 [1]: > 512 nM
- AUC [2]: 0.635
- IC50 [2]: 2340 nM
- AUC [3]: 0.98
- IC50 [3]: > 10200 nM
- AUC [4]: 0.988
- IC50 [4]: > 100 nM

Cell Line: NCI-H1793 (lung adenocarcinoma, adherent)
- AUC [1]: 0.883
- IC50 [1]: > 512 nM
- AUC [2]: 0.605
- IC50 [2]: 2190 nM
- AUC [3]: 0.965
- IC50 [3]: > 10200 nM
- AUC [4]: 0.964
- IC50 [4]: > 100 nM

Cell Line: NCI-H1915 (large cell lung carcinoma, adherent)
- AUC [1]: 0.953
- IC50 [1]: > 512 nM
- AUC [2]: 0.553
- IC50 [2]: 1400 nM
- AUC [3]: 0.884
- IC50 [3]: > 10200 nM
- AUC [4]: 0.984
- IC50 [4]: > 100 nM

Cell Line: NCI-H2085 (lung adenocarcinoma, adherent)
- AUC [1]: 0.833
- IC50 [1]: 368 nM
- AUC [2]: 0.689
- IC50 [2]: 3560 nM
- AUC [3]: 0.911
- IC50 [3]: > 10200 nM
- AUC [4]: 0.979
- IC50 [4]: > 100 nM

Cell Line: NCI-H2170 (lung squamous cell carcinoma, adherent)
- AUC [1]: 0.841
- IC50 [1]: 379 nM
- AUC [2]: 0.049
- IC50 [2]: < 62.5 nM
- AUC [3]: 0.985
- IC50 [3]: > 10200 nM
- AUC [4]: 0.986
- IC50 [4]: > 100 nM

Cell Line: NUGC-3 (stomach, adherent)
- AUC [1]: 0.914
- IC50 [1]: > 512 nM
- AUC [2]: 0.108
- IC50 [2]: < 62.5 nM
- AUC [3]: 0.955
- IC50 [3]: > 10200 nM
- AUC [4]: 0.982
- IC50 [4]: > 100 nM

Cell Line: OAW-28 (ovary, adherent)
- AUC [1]: 0.863
- IC50 [1]: > 512 nM
- AUC [2]: 0.402
- IC50 [2]: 501 nM
- AUC [3]: 0.817
- IC50 [3]: 7760 nM
- AUC [4]: 0.963
- IC50 [4]: > 100 nM

Cell Line: OSC-19 (head and neck, adherent)
- AUC [1]: 0.896
- IC50 [1]: > 512 nM
- AUC [2]: 0.425
- IC50 [2]: 616 nM
- AUC [3]: 0.912
- IC50 [3]: > 10200 nM
- AUC [4]: 0.985
- IC50 [4]: > 100 nM

Cell Line: PANC-10-05 (pancreas, adherent)
- AUC [1]: 0.821
- IC50 [1]: 412 nM
- AUC [2]: 0.218
- IC50 [2]: 114 nM
- AUC [3]: 0.964
- IC50 [3]: > 10200 nM
- AUC [4]: 0.979
- IC50 [4]: > 100 nM

Cell Line: PCI-38 (head and neck, adherent)
- AUC [1]: 0.953
- IC50 [1]: > 512 nM
- AUC [2]: 0.428
- IC50 [2]: 634 nM
- AUC [3]: 0.931
- IC50 [3]: > 10200 nM
- AUC [4]: 0.966
- IC50 [4]: > 100 nM

Cell Line: PL18 (pancreas, adherent)
- AUC [1]: 0.785
- IC50 [1]: 218 nM
- AUC [2]: 0.235
- IC50 [2]: 171 nM
- AUC [3]: 0.958
- IC50 [3]: > 10200 nM
- AUC [4]: 0.851
- IC50 [4]: 76.2 nM

Cell Line: RD (rhabdomyosarcoma, adherent)
- AUC [1]: 0.907
- IC50 [1]: > 512 nM
- AUC [2]: 0.565
- IC50 [2]: 1530 nM
- AUC [3]: 0.771
- IC50 [3]: 4300 nM
- AUC [4]: 0.976
- IC50 [4]: > 100 nM

Cell Line: RERF-GC-1B (stomach, adherent)
- AUC [1]: 0.884
- IC50 [1]: > 512 nM
- AUC [2]: 0.649
- IC50 [2]: 2730 nM
- AUC [3]: 0.814
- IC50 [3]: 6400 nM
- AUC [4]: 0.983
- IC50 [4]: > 100 nM

Cell Line: SCC90 (head and neck, adherent)
- AUC [1]: 0.821
- IC50 [1]: 479 nM
- AUC [2]: 0.608
- IC50 [2]: 2240 nM
- AUC [5]: 0.899
- IC50 [5]: > 2000 nM
- AUC [4]: 0.851
- IC50 [4]: > 100 nM

Cell Line: SK-CO-1 (large intestine, adherent)
- AUC [1]: 0.86
- IC50 [1]: 389 nM
- AUC [2]: 0.279
- IC50 [2]: 247 nM
- AUC [3]: 0.722
- IC50 [3]: 2610 nM
- AUC [4]: 0.979
- IC50 [4]: > 100 nM

Cell Line: SK-LU-1 (lung adenocarcinoma, adherent)
- AUC [1]: 0.849
- IC50 [1]: > 512 nM
- AUC [2]: 0.082
- IC50 [2]: < 62.5 nM
- AUC [3]: 0.893
- IC50 [3]: > 10200 nM
- AUC [4]: 0.979
- IC50 [4]: > 100 nM

Cell Line: SNU-398 (liver, adherent)
- AUC [1]: 0.687
- IC50 [1]: 109 nM
- AUC [2]: 0.487
- IC50 [2]: 921 nM
- AUC [3]: 0.824
- IC50 [3]: 6390 nM
- AUC [4]: 0.983
- IC50 [4]: > 100 nM

Cell Line: SW156 (kidney, adherent)
- AUC [1]: 0.841
- IC50 [1]: 417 nM
- AUC [2]: 0.432
- IC50 [2]: 636 nM
- AUC [3]: 0.917
- IC50 [3]: > 10200 nM
- AUC [4]: 0.983
- IC50 [4]: > 100 nM

Cell Line: SW837 (large intestine, adherent)
- AUC [1]: 0.983
- IC50 [1]: > 512 nM
- AUC [2]: 0.306
- IC50 [2]: 236 nM
- AUC [3]: 0.946
- IC50 [3]: > 10200 nM
- AUC [4]: 0.98
- IC50 [4]: > 100 nM

Cell Line: SW900 (lung squamous cell carcinoma, adherent)
- AUC [1]: 0.885
- IC50 [1]: > 512 nM
- AUC [2]: 0.468
- IC50 [2]: 806 nM
- AUC [3]: 0.904
- IC50 [3]: > 10200 nM
- AUC [4]: 0.979
- IC50 [4]: > 100 nM

Cell Line: SW1088 (glioma, adherent)
- AUC [1]: 0.764
- IC50 [1]: 240 nM
- AUC [2]: 0.684
- IC50 [2]: 3830 nM
- AUC [3]: 0.923
- IC50 [3]: > 10200 nM
- AUC [4]: 0.979
- IC50 [4]: > 100 nM

Cell Line: SW1463 (large intestine, adherent)
- AUC [1]: 0.962
- IC50 [1]: > 512 nM
- AUC [2]: 0.584
- IC50 [2]: 2000 nM
- AUC [3]: 0.949
- IC50 [3]: > 10200 nM
- AUC [4]: 0.974
- IC50 [4]: > 100 nM

Cell Line: TCCSUP (bladder, adherent)
- AUC [1]: 0.659
- IC50 [1]: 94.5 nM
- AUC [2]: 0.392
- AUC [3]: 0.984
- IC50 [3]: > 10200 nM
- AUC [4]: 0.98
- IC50 [4]: > 100 nM

Cell Line: TGBC24TKB (biliary tract, adherent)
- AUC [1]: 0.947
- IC50 [1]: > 512 nM
- AUC [2]: 0.435
- IC50 [2]: 675 nM
- AUC [3]: 0.924
- IC50 [3]: > 10200 nM
- AUC [4]: 0.986
- IC50 [4]: > 100 nM

Cell Line: U031 (kidney, adherent)
- AUC [1]: 0.79
- IC50 [1]: 238 nM
- AUC [2]: 0.356
- IC50 [2]: 392 nM
- AUC [3]: 0.933
- IC50 [3]: > 10200 nM
- AUC [4]: 0.961
- IC50 [4]: > 100 nM

Cell Line: VM-CUB-1 (bladder, adherent)
- AUC [1]: 0.891
- IC50 [1]: > 512 nM
- AUC [2]: 0.3
- IC50 [2]: 280 nM
- AUC [3]: 0.984
- IC50 [3]: > 10200 nM
- AUC [4]: 0.983
- IC50 [4]: > 100 nM

IC50 is the fitted dose that halves viability relative to control wells, and lower means more sensitive; where the fit passes the top or lowest dose, that dose stands as a limit. AUC sums up the same curve from the lowest dose to the 256-fold higher top dose; it is 1 without any effect and falls as sensitivity rises. For some of these results: Where the top dose is marked as inferred, it was calculated from the reported fits.
